Results reported in PubChem BioAssay AID624417 (National Center for Advancing Translational Sciences (NCATS), 2012).
About 6,400 (1.6%) of roughly 410,000 compounds were called active. This list was built around the results that the source calls inconclusive (neither active nor inactive); the mix of calls is not that of the screen. The call rests on the fitted dose curve; in most records, active means well fitted inhibition curve with a large enough effect; inconclusive means small, poorly fitted or top-dose-only effect; inactive means no such curve, though single readings can be large or run the other way. Potencies of inconclusive entries are left out as doubtful fits.

These compounds were tested against Glucagon-like peptide 1 receptor (Homo sapiens) (UniProt P43220) (assay: qHTS of GLP-1 Receptor Inverse Agonists (Inhibition Mode)). Conditions: HEK293 GLP-1R CRE-luciferase, luminescence, 24 h, GLP-1R form is constitutively active; activity change, negative = inhibition: at 38.3 µM (top of the series) unless noted.
Sequence of UniProt P43220 (P43220 whole entry, looked up): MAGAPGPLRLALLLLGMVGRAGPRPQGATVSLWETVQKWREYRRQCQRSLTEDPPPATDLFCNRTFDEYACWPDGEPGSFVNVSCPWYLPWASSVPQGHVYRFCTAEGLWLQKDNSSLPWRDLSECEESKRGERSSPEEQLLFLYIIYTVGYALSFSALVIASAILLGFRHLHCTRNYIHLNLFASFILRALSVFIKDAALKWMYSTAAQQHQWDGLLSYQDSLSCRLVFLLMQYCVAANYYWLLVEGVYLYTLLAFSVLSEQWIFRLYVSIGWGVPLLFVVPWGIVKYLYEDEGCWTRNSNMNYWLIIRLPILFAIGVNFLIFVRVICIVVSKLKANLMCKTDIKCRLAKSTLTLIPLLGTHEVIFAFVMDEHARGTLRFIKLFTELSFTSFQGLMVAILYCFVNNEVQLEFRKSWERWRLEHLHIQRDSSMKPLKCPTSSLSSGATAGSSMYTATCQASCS
How it was run: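 Assay principle: reduced luminescence from a cAMP-responsive reporter in HEK293 cells co-expressing a constitutively active GLP-1R. Conditions: 24 hr compound incubation, 37 deg C, 5% CO2.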
Further: nearly all actives have a fitted effect of over 55% in size.
On the % scale 0 is the no-effect control and ±100 the full control effect; potency means the concentration at half of the fitted maximal effect; tags describe the fitted curve by direction and shape.

| Compound | activity change, negative = inhibition | Potency |
| --- | --- | --- |
| CCOCc1c(C(=O)Nc2cc(OCC)c(N3CCOCC3)cc2OCC)oc2ccccc12 | inactive: 6.16% | – |
| CC1(C(=O)NCc2cccc(Cl)c2)Cc2c(-c3ccccc3)ccnc2O1 (centres undefined) | – | inconclusive [inhibitor, single point] |
| Cc1ccc(-n2ncc3c(N4CCN(Cc5ccccc5)CC4)ncnc32)cc1C | inactive: -8.87% | – |
| S=c1[nH]c(-c2ccccc2)cn1/N=C/c1cccc2ccccc12 | – | inconclusive [inhibitor, single point] |
| Cn1ccnc1C1CCCCN1Cc1nc(-c2ccc(Cl)cc2)no1 (centres undefined) | inactive: -12.2% | – |
| Cc1nc(NC(=O)c2ccco2)sc1-c1csc(Nc2ccc(Cl)cc2Cl)n1 | inactive: 18.7% | – |
| Cc1oc(-c2ccccc2F)nc1Cn1c(SCc2cccc(Cl)c2)nc2ccncc21 | – | inconclusive [inhibitor, single point] |
| O=C(Cn1cnc([N+](=O)[O-])c1)Nc1cc(Oc2ccc(Cl)cc2Cl)cc([N+](=O)[O-])c1 | – | active: 5.62 µM |
| CCc1nn(CC(=O)NCC(C)c2ccccc2)c(=O)c2cc3c(OC)cccc3n12 (centres undefined) | inactive: -3.38% | – |
| Cc1ccc(C(C(=O)NC2CCCC2)N(Cc2ccc(F)cc2)C(=O)c2snc(C(N)=O)c2N)o1 (centres undefined) | – | inconclusive [inhibitor, single point] |
| Cc1cc(Br)cc(C)c1OCC(=O)Nc1ccc(S(=O)(=O)Nc2ncccn2)cc1 | – | inconclusive [inhibitor, partial curve, poor fit] |
| COc1ccc(C2/C=C\CN(S(=O)(=O)c3ccc(C)cc3)[C@H](Cc3ccccc3)C(=O)N2Cc2ccc(F)cc2)cc1 (some centres undefined) | – | inconclusive [inhibitor, partial curve, poor fit] |
| O=C(NNC(=O)C1CCCCC1)C(=O)NC1CCCCC1 | inactive: -20.2% | – |
| CCOCCCN(C)C1CCN(C(=O)c2oc3ccccc3c2NC(=O)c2ccc(F)cc2)CC1 | – | inconclusive [inhibitor, single point] |
| CCOC(=O)/C=C(\C)N1N=C(c2ccccc2)CC1c1ccccc1 (centres undefined) | – | inconclusive [inhibitor, single point] |
| Cc1cccc(OCC(=O)Nc2ccc(S(=O)(=O)N(Cc3ccccc3)c3ccccc3)cc2)c1 | inactive: 0.925% | – |
| COC(=O)C1=CN(Cc2ccccc2)C=C(C(=O)OC)C1c1cc(F)ccc1F | – | inconclusive [inhibitor, single point] |
| C=CCC(Nc1ccccc1)C12C=CC(O1)C(C(=O)OC)=C2C(=O)OC (centres undefined) | – | inconclusive [inhibitor, single point] |
| Clc1ccc(Cl)c(OCCCCNCc2ccccc2)c1 | – | inconclusive [inhibitor, single point] |
| CCCN1Cc2cccc(C(=O)NC(CC(=O)OCC)c3ccc(OC(C)C)cc3)c2C1=O (centres undefined) | – | inconclusive [inhibitor, single point] |
| O=C(COc1ccc(F)cc1)NCc1ccc2c(c1)CCN2C(=O)c1ccc(F)cc1 | – | inconclusive [inhibitor, partial curve, poor fit] |
| Cc1ccc(CN2CCN(Cc3ccc4c(c3)OCCO4)CC2CCO)cc1 (centres undefined) | – | inconclusive [inhibitor, single point] |

| Compound | activity change, negative = inhibition | Potency |
| --- | --- | --- |
| CC(C)CN1C(=O)/C(=C/c2ccco2)NC1=S | inactive: -17.2% | – |
| Cc1cc(C)cc(NC(=O)[C@H](Cc2c[nH]c3ccccc23)NC(=O)[C@@H]2Cc3ccccc3CN2)c1 | – | inconclusive [inhibitor, single point] |
| Cc1ccc(C(=O)Nc2cccc(C(=O)NCc3ccccc3)c2)cc1 | – | active: 12.6 µM |
| O=C1Nc2ccc(Br)cc2/C1=C/C(=O)c1ccc2c(c1)OCO2 | – | inconclusive [inhibitor, partial curve, poor fit] |
| Brc1ccc(-c2nc(-c3ccncc3)no2)cc1 | inactive: 27.2% | – |
| COc1ccc(N2CCN(CC(O)COCCOc3ccc(Br)cc3)CC2)cc1 (centres undefined) | inactive: -13.7% | – |
| O=C(NCc1ccc2c(c1)OCO2)C1CCC(CNS(=O)(=O)c2ccccc2)CC1 (centres undefined) | – | inconclusive [inhibitor, single point] |
| C=CCN(CC=C)CCOc1ccccc1[N+](=O)[O-] | – | inconclusive [inhibitor, single point] |
| CC1CN(CCCCOc2cccc(Oc3ccccc3)c2)CC(C)O1 (centres undefined) | inactive: -21.1% [at 7.66 µM] | – |
| COc1ccccc1CC(=O)O/N=C(\N)c1ccccn1 | inactive: 13.2% | – |
| Cc1ccc(S(=O)(=O)C(CNC(=O)C(=O)NCCc2ccc(F)cc2)c2cccs2)cc1 (centres undefined) | inactive: 1.71% | – |
| COc1ccc(N2CCN(C(=O)c3ccc(CS(=O)c4cccc(C)c4)o3)CC2)cc1 (centres undefined) | – | inconclusive [inhibitor, partial curve, poor fit] |
| O=C(CSc1cc(Cl)ccc1Cl)NC1CCCC1 | – | inconclusive [inhibitor, partial curve, poor fit] |
| COc1ccc(CN(C(=O)c2snc(C(N)=O)c2N)C(C)C(=O)NCc2ccc(F)cc2)cc1 (centres undefined) | inactive: 8.14% | – |
| CCOC(=O)c1ccc(NC(=O)c2cc(F)c(F)cc2Cl)cc1 | – | inconclusive [inhibitor, single point] |
| O=C(CCCC(=O)c1ccccc1)Nc1ccc(F)cc1 | inconclusive: -31.2% [inhibitor] | – |
| CC(=O)c1c(O)c(C)c(-c2ccccc2)n(-c2ccccc2)c1=O | – | inconclusive [inhibitor, single point] |
| COc1ccc(CN2CCN(C(=O)CC(C)C)CC2)cc1Br | inactive: -0.709% | – |
| CC1CCC(C(C)C)C(OC(=O)COC(=O)c2ccc(=O)[nH]c2)C1 (centres undefined) | – | inconclusive [inhibitor, partial curve, poor fit] |
| Cc1cccc(OCC(=O)N2CCC(N3CCCCCC3)CC2)c1 | – | inconclusive [inhibitor, full curve] |
| O=C(CSc1nc2ccccc2n1Cc1cccc(C(F)(F)F)c1)NCc1ccccc1 | – | inconclusive [inhibitor, single point] |
| Cc1ccc(C(=O)N2CC=C(c3ccccc3)CC2)o1 | – | inconclusive [inhibitor, partial curve, poor fit] |
